Experimental data: patent publication US4211769A, “Preparations for vaginal administration” (Takeda Chemical Industries, Ltd., priority 1977, dated 1980)
Several values for one entry are separate records, joined by “and”; a condition that tells them apart may be missing. Equal values may be shown once. At least one peptide structure holds a part that was inferred or is arguable (an end, a ring closure or a residue).

Assays:
Diestrous female SD rats = experiment: ovulation induction by vaginal suppositories in oleaginous base (Examples 4, 5); type: in vivo, rat; conditions: for ED50 (95% fiducial limits) / number of ovulating rats/number of vaginally dosed rats: glyceryl trilaurate base
[1] = test system: breast cancers induced by DMBA; type: in vivo, rat
serum LH = serum LH level by radioimmunoassay after single administration; type: in vivo, rat; conditions: vaginal 50 ng; for serum LH concentration (mean ± S.E.): glyceryl trilaurate base with 10% citric acid, diestrous rats
rat = type: in vivo
Source text: In terms of ovulation-stimulating action, a 30 times increase of stimulating effect was obtained over the control (without carboxylic acid) in the case of natural type LH-RH (Table 1). […] It is clear that a given pharmacological effect can be obtained at a dose equivalent to 5.2 times the intravenous dose or 3.1 times the subcutaneous dose. […] In view of these facts, it is obvious that the vaginal administration according to this invention is a very advantageous method of medication.
Thus, to achieve a given ovulation-stimulatingactivity, the vaginal preparation according to this invention requires only 2.6 times as much of peptide as by the intravenous route and 1.7 times as much of peptide as by the subcutaneous route. The unusual effectiveness of the vaginal preparation of this invention will also be apparent in view of the fact that oral administration requires 1900 times as much of peptide as by the intravenous route, rectal administration requires 82 times the dosage by the intravenous route, and vaginal administration with the oleaginous basis (Witepsol® S55) requires 26 times as much of peptide as by the intravenous route.

[2] = vaginal, oleaginous base with carboxylic acid

CCNC(=O)[C@@H]1CCCN1C(=O)[C@H](CCCNC(=N)N)NC(=O)[C@H](CC(C)C)NC(=O)[C@@H](CC(C)C)NC(=O)[C@H](Cc1ccc(O)cc1)NC(=O)[C@H](CO)NC(=O)[C@H](Cc1c[nH]c2ccccc12)NC(=O)[C@H](Cc1c[nH]cn1)NC(=O)[C@@H]1CCC(=O)N1 [peptide of Example 5, (Pyr)Glu-His-Trp-Ser-Tyr-D-Leu-Leu-Arg-Pro-NH-C2 H5]
ED50 (95% fiducial limits) (Diestrous female SD rats; ascorbic acid 10%): 114(80-161) ng/rat | number of ovulating rats/number of vaginally dosed rats (Diestrous female SD rats; ascorbic acid 10%, 60 ng/rat): 3/10 | number of ovulating rats/number of vaginally dosed rats (Diestrous female SD rats; ascorbic acid 10%, 80 ng/rat): 2/10 | number of ovulating rats/number of vaginally dosed rats (Diestrous female SD rats; ascorbic acid 10%, 100 ng/rat): 4/10 | number of ovulating rats/number of vaginally dosed rats (Diestrous female SD rats; ascorbic acid 10%, 150 ng/rat): 7/10 | ED50 (95% fiducial limits) (Diestrous female SD rats; aspartic acid 10%): 122(79-169) ng/rat | number of ovulating rats/number of vaginally dosed rats (Diestrous female SD rats; aspartic acid 10%, 80 ng/rat): 2/10 | number of ovulating rats/number of vaginally dosed rats (Diestrous female SD rats; aspartic acid 10%, 100 ng/rat): 4/10 | number of ovulating rats/number of vaginally dosed rats (Diestrous female SD rats; aspartic acid 10%, 200 ng/rat): 9/10 | number of ovulating rats/number of vaginally dosed rats (Diestrous female SD rats; aspartic acid 10%, 400 ng/rat): 9/10 | number of ovulating rats/number of vaginally dosed rats (Diestrous female SD rats; aspartic acid 10%, 600 ng/rat): 10/10 | number of ovulating rats/number of vaginally dosed rats (Diestrous female SD rats; aspartic acid 10%, 800 ng/rat): 5/5 | ED50 (95% fiducial limits) (Diestrous female SD rats; citric acid 10%): 56(38-69) ng/rat | number of ovulating rats/number of vaginally dosed rats (Diestrous female SD rats; citric acid 10%, 40 ng/rat): 2/10 | number of ovulating rats/number of vaginally dosed rats (Diestrous female SD rats; citric acid 10%, 60 ng/rat): 6/10 | number of ovulating rats/number of vaginally dosed rats (Diestrous female SD rats; citric acid 10%, 80 ng/rat): 8/10 | number of ovulating rats/number of vaginally dosed rats (Diestrous female SD rats; citric acid 10%, 100 ng/rat): 9/10 | number of ovulating rats/number of vaginally dosed rats (Diestrous female SD rats; citric acid 10%, 200 ng/rat): 10/10 | number of ovulating rats/number of vaginally dosed rats (Diestrous female SD rats; citric acid 10%, 400 ng/rat): 10/10 | number of ovulating rats/number of vaginally dosed rats (Diestrous female SD rats; citric acid 10%, 600 ng/rat): 5/5 | number of ovulating rats/number of vaginally dosed rats (Diestrous female SD rats; citric acid 10%, 800 ng/rat): 5/5 | ED50 (95% fiducial limits) (Diestrous female SD rats; glutamic acid 10%): 177(133-243) ng/rat | number of ovulating rats/number of vaginally dosed rats (Diestrous female SD rats; glutamic acid 10%, 100 ng/rat): 0/10 | number of ovulating rats/number of vaginally dosed rats (Diestrous female SD rats; glutamic acid 10%, 200 ng/rat): 7/10 | number of ovulating rats/number of vaginally dosed rats (Diestrous female SD rats; glutamic acid 10%, 400 ng/rat): 10/10 | number of ovulating rats/number of vaginally dosed rats (Diestrous female SD rats; glutamic acid 10%, 600 ng/rat): 10/10 | number of ovulating rats/number of vaginally dosed rats (Diestrous female SD rats; glutamic acid 10%, 800 ng/rat): 5/5 | ED50 (95% fiducial limits) (Diestrous female SD rats; lactic acid 2%): 117(95-184) ng/rat | number of ovulating rats/number of vaginally dosed rats (Diestrous female SD rats; lactic acid 2%, 60 ng/rat): 2/10 | number of ovulating rats/number of vaginally dosed rats (Diestrous female SD rats; lactic acid 2%, 80 ng/rat): 0/10 | number of ovulating rats/number of vaginally dosed rats (Diestrous female SD rats; lactic acid 2%, 100 ng/rat): 3/10 | number of ovulating rats/number of vaginally dosed rats (Diestrous female SD rats; lactic acid 2%, 150 ng/rat): 8/10 | ED50 (95% fiducial limits) (Diestrous female SD rats; no carboxylic acid): 270(194-353) ng/rat | number of ovulating rats/number of vaginally dosed rats (Diestrous female SD rats; no carboxylic acid, 100 ng/rat): 0/10 | number of ovulating rats/number of vaginally dosed rats (Diestrous female SD rats; no carboxylic acid, 200 ng/rat): 3/10 | number of ovulating rats/number of vaginally dosed rats (Diestrous female SD rats; no carboxylic acid, 400 ng/rat): 8/10 | number of ovulating rats/number of vaginally dosed rats (Diestrous female SD rats; no carboxylic acid, 600 ng/rat): 9/10 | number of ovulating rats/number of vaginally dosed rats (Diestrous female SD rats; no carboxylic acid, 800 ng/rat): 10/10 | ED50 (95% fiducial limits) (Diestrous female SD rats; succinic acid 10%): 50(37-63) ng/rat | number of ovulating rats/number of vaginally dosed rats (Diestrous female SD rats; succinic acid 10%, 20 ng/rat): 0/10 | number of ovulating rats/number of vaginally dosed rats (Diestrous female SD rats; succinic acid 10%, 40 ng/rat): 4/10 | number of ovulating rats/number of vaginally dosed rats (Diestrous female SD rats; succinic acid 10%, 60 ng/rat): 6/10 | number of ovulating rats/number of vaginally dosed rats (Diestrous female SD rats; succinic acid 10%, 80 ng/rat): 8/10 | number of ovulating rats/number of vaginally dosed rats (Diestrous female SD rats; succinic acid 10%, 100 ng/rat): 9/10 | ED50 (95% fiducial limits) (Diestrous female SD rats; tartaric acid 10%): 82(69-97) ng/rat | number of ovulating rats/number of vaginally dosed rats (Diestrous female SD rats; tartaric acid 10%, 60 ng/rat): 1/10 | number of ovulating rats/number of vaginally dosed rats (Diestrous female SD rats; tartaric acid 10%, 80 ng/rat): 5/10 | number of ovulating rats/number of vaginally dosed rats (Diestrous female SD rats; tartaric acid 10%, 100 ng/rat): 8/10 | number of ovulating rats/number of vaginally dosed rats (Diestrous female SD rats; tartaric acid 10%, 150 ng/rat): 5/5 | absorption relative to the control (without organic acid) (Diestrous female SD rats; oleaginous base with 10% succinic acid): 5.4 times | growth inhibition of the tumours ([1]; s.c. 100 μg/kg in physiological saline, 2 rats, daily except Saturdays and Sundays, 2.5 months): moderate growth inhibition of the tumours was obtained in both cases | animals with moderate inhibition of tumours (effective response) ([1]; vaginal suppository 350 μg/rat, glyceryl trilaurate base with 10% citric acid, 2.5 months): 3 out of the four and 3 out of the five cases | overall antitumour effect ([1]; vaginal suppository with 10% citric acid): significant antitumour effects | serum LH concentration (mean ± S.E.) (serum LH; 0 min): 23.8 ± 9.1 ng/mL | serum LH concentration (mean ± S.E.) (serum LH; 10 min): 46.5 ± 7.8 ng/mL | serum LH concentration (mean ± S.E.) (serum LH; 20 min): 59.7 ± 12.0 ng/mL | serum LH concentration (mean ± S.E.) (serum LH; 40 min): 110.0 ± 16.4 ng/mL | serum LH concentration (mean ± S.E.) (serum LH; 60 min): 178.0 ± 83.4 ng/mL | serum LH concentration (mean ± S.E.) (serum LH; 120 min): 602.0 ± 254.9 ng/mL | serum LH concentration (mean ± S.E.) (serum LH; 180 min): 166.6 ± 97.5 ng/mL | serum LH concentration (mean ± S.E.) (serum LH; 240 min): 380.0 ± 182.4 ng/mL | serum LH concentration (mean ± S.E.) (serum LH; 300 min): 158.6 ± 78.8 ng/mL | serum LH concentration (mean ± S.E.) (serum LH; 360 min): 39.0 ± 9.1 ng/mL | peak serum LH concentration relative to the normal level (serum LH; oleaginous base with 10% citric acid): 25 times | serum LH level relative to the pre-administration level (serum LH; oleaginous base with 10% citric acid, 5 hours after administration): about 7 times | oral dose for a given pharmacological effect relative to the intravenous dose (rat; oral administration): 1900 times | vaginal dose for a given pharmacological effect relative to the intravenous dose (rat; [2]): 5.2 times | vaginal dose for a given pharmacological effect relative to the subcutaneous dose (rat; [2]): 3.1 times | vaginal dose relative to the intravenous dose (rat; vaginal, oleaginous base, absence of carboxylic acid (Table 2)): 26 times
